Measured values as given in patent US20230061378A1 (SUZHOU ALPHAMAB, published 2023).

Key:
[1] = biological target: T1, pertussis toxin (PT) (Bordetella pertussis); test: cell-based or functional assay
[2] = biological target: T1, pertussis toxin (PT); test: BLI (Octet), Fc fusion on AHC biosensor, PT 6.25-100 nM in solution, 1:1 model
[3] = biological target: T1, pertussis toxin (PT); test: BLI in-tandem binning on PT-biotin; competitor (Ab1, bound first): 1B7
[4] = biological target: T1, pertussis toxin (PT); test: BLI in-tandem binning on PT-biotin; competitor (Ab1, bound first): 11E6
[5] = biological target: T1, pertussis toxin (PT); test: BLI in-tandem binning on PT-biotin; competitor (Ab1, bound first): iPT7FC
[6] = biological target: T1, pertussis toxin (PT); test: BLI in-tandem binning on PT-biotin; competitor (Ab1, bound first): iPT12FC
[7] = biological target: T1, pertussis toxin (PT); test: BLI in-tandem binning on PT-biotin; competitor (Ab1, bound first): iPT15FC
[8] = biological target: T1, pertussis toxin (PT); test: BLI in-tandem binning on PT-biotin; competitor (Ab1, bound first): iPT22FC
[9] = biological target: T1, pertussis toxin (PT); test: BLI in-tandem binning on PT-biotin; competitor (Ab1, bound first): iPT26FC
[10] = biological target: T1, pertussis toxin (PT); test: BLI in-tandem binning on PT-biotin; competitor (Ab1, bound first): iPT35FC
[11] = biological target: T1, pertussis toxin (PT); test: BLI in-tandem binning on PT-biotin; competitor (Ab1, bound first): iPT42FC
[12] = biological target: T1, pertussis toxin (PT); test: cell-based or functional assay; remark: listed apart in the source
[13] = biological target: T1, pertussis toxin (PT); test: cell-based or functional assay; remark: listed apart in the source
[14] = biological target: T1, pertussis toxin (PT); test: cell-based or functional assay; remark: listed apart in the source
[15] = biological target: T1, pertussis toxin (PT); test: BLI, antibody on AHC biosensor, PTpuri 6.25-100 nM in solution

| Binder | Completely neutralizing concentration (CHO-K1 cells with PT toxin) [1] [µg/mL] | Kd [2] [nM] | koff [2] [s⁻¹] | kon [2] [M⁻¹ s⁻¹] | Ab2 with Ab1/Ab2 without Ab1 [3] [%] | Ab2 with Ab1/Ab2 without Ab1 [4] [%] | Ab2 with Ab1/Ab2 without Ab1 [5] [%] | Ab2 with Ab1/Ab2 without Ab1 [6] [%] | Ab2 with Ab1/Ab2 without Ab1 [7] [%] | Ab2 with Ab1/Ab2 without Ab1 [8] [%] | Ab2 with Ab1/Ab2 without Ab1 [9] [%] | Ab2 with Ab1/Ab2 without Ab1 [10] [%] | Ab2 with Ab1/Ab2 without Ab1 [11] [%] | Minimum neutralizing concentration (CHO-K1 cells with PT toxin) [12] [µg/mL] | Concentration for completely neutralizing PTToxin [13] [µg/mL] | Minimum neutralizing concentration (CHO-K1 cells with PT toxin) [14] [µg/mL] | Kd [15] [nM] | koff [15] [s⁻¹] | kon [15] [M⁻¹ s⁻¹] |
| --- | --- | --- | --- | --- | --- | --- | --- | --- | --- | --- | --- | --- | --- | --- | --- | --- | --- | --- | --- |
| iPT20Fc (Fc fusion) QVQLQESGGGSVQAGGSLRLSCAASEYRYCMAWFRQAPGKEREGVAGIYIGDRTVYSDSVKGRFTISQDNADNTVYLQMNSLKPEDTAMYYCATVDLICPSDWAQRLQYQYWGQGTQVTVSS[human IgG1 Fc cut from this listing] | 50 | 0.221 | 9.46e-05 | 467000 | – | – | – | – | – | – | – | – | – | – | – | – | – | – | – |
| iPT42Fc (Fc fusion) QVQLQESGGGSVQAGGSLRLSCAASGYTYSDVCMGWFRQAPGKEREGVAAIDSVGNTNYADSVKGRFTISKDNAKNTLYLQMNSLKPEDTAMYYCAAQRCLGWVPLVPHEYGFWGQGTQVTVSS[human IgG1 Fc cut from this listing] | – | 0.375 | 0.000145 | 386000 | 88 | 86 | 79.6 | 79 | 79.8 | 84.2 | 93.6 | 98.6 | 10.5 | – | – | – | – | – | – |
| iPT15Fc (Fc fusion, also called iPT15-Fe) QVQLQESGGGSVQAGGSLRLSCAASGYTYGSYCMAWFRQAPGKEREGVAGVDSDGTTRYADSVKGRFTISKDNAENTLYLQMNSLKPEDTSMYYCAAGVCGTGGSWYEGDAGLFMYEFAYWGQGTQVTVSS[human IgG1 Fc cut from this listing] | 1.56 | 0.138 | 5.4e-05 | 393000 | 85 | 88 | 79.8 | 86.8 | 15.4 | 32.6 | 103 | 71.1 | 77.6 | < 1 | – | – | – | – | – |
| iPT7Fc (Fc fusion) QVQLQESGGGSVQPGGSLRLSCAASGYTYSSYCMGWFRQAPGKEREGVAAIDSDGRTSYADFVKGRFTISKDNAKNTLYLQMNSLKPEDTAKYYCATEQRIGGSWYDLCGGADFGYWGQGTQVTVSS[human IgG1 Fc cut from this listing] | 1.56 | – | – | – | 86 | 36 | 12 | 16.3 | 116 | 82.7 | 117 | 119 | 110 | < 1 | – | – | – | – | – |
| iPT12Fc (Fc fusion) QVQLQESGGGSVQAGGSLRLSCAASGYTYSSYCMGWFRQAPGKEREGVAGIESDGSTSYADSVKGRFSISKDNVKNTLYLQMNTLKPEDTGIYYCAVQSPLPGGSWYSLCGGADFGYWGQGTQVTVSS[human IgG1 Fc cut from this listing] | 1.12 | 0.0891 | 5.51e-05 | 618000 | 88 | 15 | 17.4 | 11.9 | 108 | 78.5 | 110 | 120 | 105 | – | 0.42 | – | – | – | – |
| huPT42v6n15v11c-Fc (Fc fusion, also called huPT42n15-Fc) QVQLVESGGGLVQPGGSLRLSCAASGYTYSDVCMGWFRQAPGKGLEGVAAIDSVGNTNYADSVKGRFTISKDNSKNTLYLQMNSLRAEDTAVYYCAAQRCLGWVPLVPHEYGYWGQGTLVTVSSQVQLVESGGGLVQPGGSLRLSCAASGYTYGSYCMAWFRQAPGKEREGVAGVDSDGTTRYADSVKGRFTISRDNSENTLYLQMNSLKPEDTAVYYCAAGVCGTGGSWYEGDAGLFMYEFAYWGQGTLVTVSS[human IgG1 Fc cut from this listing] | – | – | – | – | – | – | – | – | – | – | – | – | – | – | – | 0.1 | < 0.001 | < 1e-07 | 337000 |
| iPT22Fc (Fc fusion) QVQLQESGGGSVQAGGSLQLSCAATDITYSRCMAWFRQAPGKSREGVAALSTNGGSTWYADSVKGRFTISRDGAKNTIYLQMRSLKPEDTAMYYCADSSFFSCRDCSGGDCPRSRDYKYWGQGTQVTVSS[human IgG1 Fc cut from this listing] | 3.13 | 0.739 | 0.000379 | 513000 | 79 | 76 | 41.7 | 53.3 | 6.73 | 7.1 | 51 | 30.6 | 45.6 | – | – | – | – | – | – |
| huPT42v6n7v11-Fc (Fc fusion, also called huPT42n7-Fc) QVQLVESGGGLVQPGGSLRLSCAASGYTYSDVCMGWFRQAPGKGLEGVAAIDSVGNTNYADSVKGRFTISKDNSKNTLYLQMNSLRAEDTAVYYCAAQRCLGWVPLVPHEYGYWGQGTLVTVSSQVQLVESGGGLVQPGGSLRLSCAASGYTYSSYCMGWFRQAPGKGLEGVAAIDSDGRTSYADFVKGRFTISKDNSKNTLYLQMNSLKPEDTAVYYCATEQRIGGSWYDLCGGADFGYWGQGTLVTVSS[human IgG1 Fc cut from this listing] | – | – | – | – | – | – | – | – | – | – | – | – | – | – | – | 0.05 | 0.2 | 9.18e-05 | 459000 |

Like-named read-outs stand apart in the source and are kept apart here.
